Laboratory results: article PMC4336329 (PLoS ONE, 2015)
About 14,000 (4.5%) of roughly 310,000 compounds showed an effect of 50% or more. Effects have a minus sign here. Some of the results follow.

What follows are compounds tested against human ether-à-go-go-related gene (hERG) potassium channel (human, UniProt Q12809) (assay: primary screen, population patch clamp on CHO cells stably expressing hERG).
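Further: peak tail current of the secondary pulse compared with the same well before compound.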

Sequence of human ether-à-go-go-related gene (hERG) potassium channel (Q12809 whole entry, looked up): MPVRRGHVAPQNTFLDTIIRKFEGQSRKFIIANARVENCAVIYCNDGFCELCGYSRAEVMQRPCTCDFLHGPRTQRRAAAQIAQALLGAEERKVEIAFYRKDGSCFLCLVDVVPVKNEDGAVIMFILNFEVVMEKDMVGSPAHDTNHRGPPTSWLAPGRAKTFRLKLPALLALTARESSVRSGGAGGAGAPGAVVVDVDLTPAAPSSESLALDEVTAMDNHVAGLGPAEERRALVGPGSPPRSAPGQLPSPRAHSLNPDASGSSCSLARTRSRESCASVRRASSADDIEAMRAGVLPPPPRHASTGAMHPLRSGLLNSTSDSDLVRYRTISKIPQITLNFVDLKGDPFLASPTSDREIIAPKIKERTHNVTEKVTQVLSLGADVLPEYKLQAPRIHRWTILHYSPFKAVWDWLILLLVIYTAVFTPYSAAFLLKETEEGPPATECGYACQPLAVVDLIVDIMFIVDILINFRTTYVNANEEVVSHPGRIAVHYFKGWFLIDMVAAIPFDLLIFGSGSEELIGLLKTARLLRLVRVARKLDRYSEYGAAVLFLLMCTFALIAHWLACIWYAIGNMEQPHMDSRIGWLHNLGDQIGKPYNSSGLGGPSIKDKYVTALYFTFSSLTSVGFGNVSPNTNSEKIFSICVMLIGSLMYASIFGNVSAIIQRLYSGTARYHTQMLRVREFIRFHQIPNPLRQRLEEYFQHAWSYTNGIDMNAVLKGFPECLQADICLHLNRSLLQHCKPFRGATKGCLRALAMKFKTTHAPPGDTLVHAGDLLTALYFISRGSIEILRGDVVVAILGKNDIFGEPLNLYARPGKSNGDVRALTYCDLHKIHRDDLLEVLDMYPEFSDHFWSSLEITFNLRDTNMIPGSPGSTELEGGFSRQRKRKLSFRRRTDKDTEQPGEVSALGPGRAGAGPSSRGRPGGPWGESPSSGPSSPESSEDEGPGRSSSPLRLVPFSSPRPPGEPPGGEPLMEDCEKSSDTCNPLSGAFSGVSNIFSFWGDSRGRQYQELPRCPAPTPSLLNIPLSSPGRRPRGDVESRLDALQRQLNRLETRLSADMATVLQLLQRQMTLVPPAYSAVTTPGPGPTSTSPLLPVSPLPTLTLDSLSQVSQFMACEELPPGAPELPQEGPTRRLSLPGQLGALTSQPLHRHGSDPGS

Row | Structure (SMILES) | hERG current change (%, negative = inhibition) at 10uM
1 | COc1ccc2nc(C)cc(Nc3ccc(N4CCN(C)CC4)cc3)c2c1 | -1.75%
2 | O=[N+]([O-])c1cccc(/C=C/c2nc(C=Nc3ccc4ccccc4c3)c(O)o2)c1 | -8.7%
3 | N#CCN1C(=O)C2CCCN2c2ccc(S(=O)(=O)N3CCOCC3)cc21 (stereo not drawn) | 19.6%
4 | C=CCNC(=O)NC(=O)COn1nnc2ccc(S(=O)(=O)N(C)C)cc21 | 5.69%
5 | COc1ccc(C(=O)CSc2nc3ccccc3n2CC(=O)c2ccccc2)cc1 | -9.94%
6 | CC(C)Cc1nc(SCc2cccnc2)c2c(=O)n(C)c(=O)n(C)c2n1 | -8.32%
7 | CC(=O)N(C1=C(N2CCOCC2)C(=O)c2ccccc2C1=O)c1ccc(C(=O)O)cc1 | 44.2%
8 | CCN(CC)c1ccc(C(=O)OCc2c(C)noc2C)cc1 | -3.32%
9 | CCOC(=O)c1[nH]c(Cc2[nH]c(C(=O)OCC)c(C)c2CCC(=O)OC)c(CCC(=O)OC)c1C | 3.71%
10 | Cc1ccccc1NC(=O)CNC(=O)Cc1cccc2ccccc12 | 1.16%
11 | COc1cc(OC)cc(-c2n[nH]c(=S)n2-c2cc(OC)ccc2OC)c1 | -4.14%
12 | CCOc1ccc(C(C(=O)NC2CCCCC2)N(C(=O)c2csnn2)C2CC2)cc1 (stereo not drawn) | 10.3%
13 | Cc1ccc2[nH]cc(CCNC(=O)c3cccs3)c2c1 | 0.562%
14 | Cc1ccc(-n2nc3c(=O)n(CCCC(=O)NC4CCC(C)CC4)nc(C)c3c2C)cc1 (stereo not drawn) | -8.63%
15 | CC(C)(C)NS(=O)(=O)c1ccc(/C=C/C(=O)O)cc1 | 18.2%
16 | COc1ccc(Oc2nc(Oc3ccc(OC)cc3)nc(Oc3ccc(OC)cc3)n2)cc1 | -1.96%
17 | CCOc1cc(C(=O)Nc2ccc(S(=O)(=O)N3CCOCC3)cc2)cc(OCC)c1OCC | 10.9%
18 | Cc1cc2c(cc1C)NC(=O)CC(C(F)(F)C(F)(F)C(F)(F)F)=N2 | 9.6%
19 | CCOC(=O)C1(Cc2cccc(OC)c2)CCCN(C(=O)CNC(C)=O)C1 (stereo not drawn) | 14.9%
20 | COc1cccc(CN2CCCC(C(=O)N3CCCCC3)C2)c1.O=C(O)C(=O)O (stereo not drawn) | 5.13%
21 | O=C1CSC(c2ccccc2F)N1 (stereo not drawn) | 9.46%
22 | O=C(Nc1nccs1)c1ccc(N2CCOCC2)c([N+](=O)[O-])c1 | 2.14%

Row | Structure (SMILES) | hERG current change (%, negative = inhibition) at 10uM
23 | O=C(NCC1CCCO1)C(=O)NCC(c1ccco1)N1CCN(c2ccc(F)cc2)CC1 (stereo not drawn) | -12.7%
24 | O=C(Nc1nnc(C2CC2)s1)c1ccc(Cl)nc1 | 0.538%
25 | O=C1CN(C(=O)/C=C/c2cccc(Cl)c2)c2ccccc2N1 | -21.4%
26 | COc1ccc(-c2nc3cc([N+](=O)[O-])ccc3o2)cc1 | 9.39%
27 | COc1ccc2c(c1)cc(C(O)c1ccccn1)n2S(=O)(=O)c1ccccc1 (stereo not drawn) | 12%
28 | CC(C)CC(=O)Nc1nc(=S)ss1 | 16.7%
29 | CCCCCC(=O)N/N=C/c1ccc([N+](=O)[O-])o1 | -26.2%
30 | CC(C)c1ccc(NC2CCCN(C(=O)C3=NN(C)C(=O)CC3)C2)cc1 (stereo not drawn) | 8.34%
31 | CC(=O)Nc1ccc(NC(=O)C2C3C=CC(C3)C2C(=O)O)cc1 (stereo not drawn) | 9.11%
32 | COc1cccc(CCC(=O)O)c1OC | 15.2%
33 | COc1ccc(CCNc2nc(C)cc(C)c2C#N)cc1OC | 12.1%
34 | O=C(O)C1CCCN1S(=O)(=O)c1ccccc1 (stereo not drawn) | -6.27%
35 | Cn1c(SCc2nn[nH]n2)nc2c1c(=O)n(Cc1ccccc1Cl)c(=O)n2C | -2.46%
36 | CCOC(=O)C1(Cc2cccc(OC)c2)CCCN(C(=O)CCSC)C1 (stereo not drawn) | 9.52%
37 | Cc1cc(NC(=O)CSc2nnc(Cc3ccccc3)o2)no1 | 14.4%
38 | COc1cccc(CN(C(=O)/C=C/c2ccco2)C2CCS(=O)(=O)C2)c1 (stereo not drawn) | -13.1%
39 | COC(=O)c1ccc(COc2ccc3c(C)c(C)c(=O)oc3c2)o1 | -2.99%
40 | COc1ccc(N(C(C)C(=O)NN=C2CCCCCCC2)S(C)(=O)=O)cc1 (stereo not drawn) | 4.3%
41 | CC(C)CN1CCN(Cc2ccc(CN3CCCCC3)s2)CC1CCO (stereo not drawn) | 16.3%
42 | C[C@@H](NCCc1ccc(O)cc1)[C@@H](O)c1ccc(O)cc1.Cl | -11.5%
43 | Cc1nc(C)n(CCNS(=O)(=O)c2ccccc2)n1 | 18.8%
44 | COc1cc(NC(=O)COc2cc(O)c3c(c2)OC(C)(C)CC3=O)cc(OC)c1 | -12.5%

Row | Structure (SMILES) | hERG current change (%, negative = inhibition) at 10uM
45 | Cc1cc(C)cc(NC(=S)NCCCN2CCOCC2)c1 | -18.5%
46 | Cc1ccc(NC(=O)c2[nH]cnc2C(=O)NN)cc1 | 18.9%
47 | CCCCNc1nnc(SCC(=O)c2c(N)n(CCC)c(=O)[nH]c2=O)s1 | -19.3%
48 | Cc1ccc(S(=O)(=O)NCC(=O)N(CC(=O)NCC2CCCO2)Cc2ccc(Cl)cc2)cc1 (stereo not drawn) | -11%
49 | CN(C)CCN1C(=O)C2C(C(=O)Nc3cc(Cl)cc(Cl)c3)C3C=CC2(O3)C1C(=O)NC1CCCCC1 (stereo not drawn) | -29.7%
50 | Cc1ccc(-c2nc(CN(CC3CCC3)CC3CCCO3)c(C)o2)s1 (stereo not drawn) | -13%
51 | CCn1c(NC(=O)c2ccco2)c(-c2ccccc2Cl)c(=O)c2ccccc21 | 24.9%
52 | CC(C)(C)C(C(=O)Oc1ccccc1)c1ccccc1 (stereo not drawn) | -1.01%
53 | CN1CCN(C(=O)CCCN2C(=O)/C(=C/c3ccc(Cl)cc3)SC2=S)CC1 | 1.74%
54 | COc1ccccc1-c1c(C(F)(F)F)oc2cc(OCC(=O)Nc3ccccc3C(F)(F)F)ccc2c1=O | -3.07%
55 | Cc1ccc(-c2noc(CN(C(=O)c3cccc(Br)c3)C(C)C)n2)cc1 | -13%
56 | COc1ccc(N2CCN(Cc3nc4ccccc4c(=O)[nH]3)CC2)cc1 | -6.67%
57 | NC(=O)C1CCN(C(=O)COc2ccc3c(c2)oc(=O)c2ccccc23)CC1 | 3.62%
58 | CCN1CCN(Cc2ccc(NC(=O)c3cc(NC(=O)c4cc(C)on4)cc(OC)c3)cc2C(F)(F)F)CC1.O=C(O)C(F)(F)F | -28.7%
59 | Cc1cccc(Cc2cnc(NC(=O)CN3C(=O)/C(=C/c4ccccc4)SC3=S)s2)c1 | 14.1%
60 | CCOC(=O)c1nn(-c2ccccc2)c(=O)cc1SC(C)C | -19.1%
61 | Cc1ccc(NC(=O)c2ccccc2NS(=O)(=O)c2ccc(F)cc2)cc1S(=O)(=O)N1CCCCC1 | 3.17%
62 | CCOCCCNS(=O)(=O)c1cc2[nH]c3c(c2cc1C)C(=O)CC(C)(C)C3 | -6.44%
63 | Cc1cc(C)c(C#N)c(SCC(O)COc2ccc(Br)cc2)n1 (stereo not drawn) | 15.8%
64 | Cc1sc(NC(=O)c2cccc(N3C(=O)CCC3=O)c2)nc1-c1ccccc1 | 0.991%
65 | O=C(N=Nc1c(O)[nH]c2ccccc12)c1ccc(CN2CCOCC2)cc1 | 22.9%
66 | CCc1ccc(-n2c(=O)c3c(C)c(C(=O)N(C)C)sc3n(CC(=O)NCc3ccco3)c2=O)cc1 | -5.72%

Row | Structure (SMILES) | hERG current change (%, negative = inhibition) at 10uM
67 | CC(=O)c1cccc(NC(=O)C(C)OC(=O)Cc2n[nH]c(=O)c3ccccc23)c1 (stereo not drawn) | 0.813%
68 | CCc1c(C)sc(NC(=O)c2noc(C)c2[N+](=O)[O-])c1C#N | 4.32%
69 | COc1cccc(CN2CCNC(=O)C2CC(=O)N(C)CCc2ccccn2)c1 (stereo not drawn) | 1.27%
70 | Cc1ccc(S(=O)(=O)c2cc3ccc(O)cc3oc2=O)cc1C | 6.26%
71 | CCOC(=O)c1c(C(F)(F)F)nc2ncccn12 | -0.211%
72 | O=C(NCc1ccccn1)c1cnc2sccn2c1=O | 18.3%
73 | N#CCCN1CCN(C2=NC(=O)C(=C3CCCCC3)S2)CC1 | -18%
74 | CC(c1ccco1)N(C(=O)c1cccc(Br)c1)c1ccccn1 (stereo not drawn) | -13.4%
75 | C=CCOc1cccc(/C=C\c2nc(O)c([N+](=O)[O-])c(=O)[nH]2)c1 | 19.3%
76 | CC(=O)N/C(=C\c1ccccc1)C(=O)Nc1ccccc1C | 4.33%
77 | Cc1ccc(C(=O)NCC(=O)OCC(=O)Nc2ccccc2C#N)s1 | 23.9%
78 | CCOCCCNC(=O)c1ccc(NC(C)=O)cc1 | 6.96%
79 | COC(=O)c1ccccc1NC(=O)Cn1nc(C(F)(F)F)c2c1CCC2 | -27.3%
80 | COc1cc(NS(=O)(=O)c2ccc(NC(=O)COc3ccccc3C)cc2)nc(OC)n1 | 14.4%
81 | Cc1cc2cc(CN(Cc3ccc4c(c3)OCO4)C(=O)c3cnccn3)c3nnnn3c2cc1C | -34.2%
82 | CN(C(=O)CSc1nnc(-c2ccc(OC(F)F)cc2)n1N)C1CCS(=O)(=O)C1 (stereo not drawn) | -4.2%
83 | CCn1c(C)nc2cc(C(=O)N/N=C(\C)c3ccccc3O)ccc21 | 9.04%
84 | COCCCNC(=O)CCn1c(=O)c2ccccc2n(CC(=O)Nc2ccccc2C)c1=O | 9.98%
85 | Brc1cccc(-c2nc(-c3ccncc3)no2)c1 | 11.9%
86 | CC(c1nnc(SCC(=O)Nc2sccc2C#N)n1-c1ccc(Cl)cc1)N(C)C (stereo not drawn) | -12.7%
87 | NC(=O)c1ccc(NC(=O)COC(=O)CNC(=O)c2sc3ccccc3c2Cl)cc1 | -12.8%
